# Data from publication PMC12136788.
# The other results are listed elsewhere or left out.
# T1: UNK ZnF1-6 (called full-length) (human, UniProt Q9C0B0 30-357)
# T1 sequence: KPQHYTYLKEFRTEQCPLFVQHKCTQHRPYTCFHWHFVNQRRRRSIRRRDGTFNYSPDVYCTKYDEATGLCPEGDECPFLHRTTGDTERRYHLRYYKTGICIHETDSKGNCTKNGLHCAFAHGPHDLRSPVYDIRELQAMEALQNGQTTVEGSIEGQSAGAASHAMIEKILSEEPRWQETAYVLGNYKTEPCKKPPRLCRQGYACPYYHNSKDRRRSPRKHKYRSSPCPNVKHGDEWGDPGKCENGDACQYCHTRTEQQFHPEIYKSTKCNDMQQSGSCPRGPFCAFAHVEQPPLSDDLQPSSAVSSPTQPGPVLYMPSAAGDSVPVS
# B1: chr3:183812448:183812549:+|3pUTR|ENSG00000163872|msi1|FALSE|unique (ssRNA)
# RNA: GGGAGUUCUACAGUCCGACGAUCUAUUGCAGGUAUCACAGCCUAAAGAAAUUAUCUUUUUGCAAAAGAAAUAUUAAAUGAUUUAGCAGUCUCCACGUGUGUUAAUGUUUCAAACGUGUAUCAUAAUGUGUAUAAUUGUGUAACCAACAGAGGAUUGAGCAUCA
# B2: chr3:124966548:124966651:-|3pUTR|ENSG00000173706|unk|FALSE|bound_elsewhere (ssRNA)
# RNA: GGGAGUUCUACAGUCCGACGAUCAGGAAGAAUGCAAAGUUCAGUAUUUCAAUACUUUGUAUUUUACUUGAAAUUACCCUUAGUAGCAUCUUUUUUUUCCUGUCUGAAAGCUUUUGUGUGGAUGAGAAGGGACAUUUCAUUUCCCAACAGAGGAUUGAGCAUCA
# B3: chr3:196782704:196782805:+|CDS|ENSG00000180370|unk|FALSE|bound_elsewhere (ssRNA)
# RNA: GGGAGUUCUACAGUCCGACGAUCAACGGAGAACUGGAAGAUAAGCCUCCAGCACCUCCUGUGCGAAUGAGCAGCACCAUCUUUAGCACUGGAGGCAAAGACCCUUUGUCAGCCAAUCACAGUUUGAAACCUUUGCCCUCUGUUCAACAGAGGAUUGAGCAUCA
# B4: chr13:52643008:52643109:+|CDS|ENSG00000139675|unk|FALSE|unique (ssRNA)
# RNA: GGGAGUUCUACAGUCCGACGAUCCAUACUGUGAAGGGCCACAACUGUGAAGUUAGAAAAGCCCUGCCAAAGCAAGAGAUGGCUAGUGCUUCAUCCAGCCAAAGAGGUCGAAGGGGUUCUGGAAACUUUGGUGGUGGUCGUGGACAACAGAGGAUUGAGCAUCA
# B5: chr11:119045269:119045370:-|3pUTR|ENSG00000149428|msi1|total|mutant (ssRNA)
# RNA: GGGAGUUCUACAGUCCGACGAUCUGUGGUUAAAAAUGGAAACUGUUCUCCUCCCCAGCCCCACUCCCUGUUCCCUACCCAUACCGGCCCUAAAUUUGGGAAAAAUCACUAUUAAUUUCUGAAUCCUUUGCCUGUGGGCCGGAACAACAGAGGAUUGAGCAUCA
# B6: ENSG00000124766:be:win_1951|3pUTR|ENSG00000124766|bound_else_gene|NA|bound_elsewhere_windowed (ssRNA)
# RNA: GGGAGUUCUACAGUCCGACGAUCCCCCCCUUUUUUUAAACGCGUGAUGAAGACAGAAGGCUCCGGGGUGACGAAUUUGGCCGAUGGCAGAUGUUUUGGGGGAACGCCGGGACUGAGAGACUCCACGCAGGCGAAUUCCCGUUUCAACAGAGGAUUGAGCAUCA
# B7: chr2:149026443:149026544:+|3pUTR|ENSG00000168280|msi1|FALSE|bound_elsewhere (ssRNA)
# RNA: GGGAGUUCUACAGUCCGACGAUCGUAAAGUGUGUCCUGUGUACUGCAGAUGUGUGUUCUCUGGGCUUUAUGUAUCUGUACAGUAGCUUUCACAUUAAAAAAAUUGUGGACAAACUUGUCCGGGGGGUUUGAGGGGAGAAUGGUCAACAGAGGAUUGAGCAUCA
# B8: chr1:37709127:37709197:+|3pUTR|ENSG00000134690|msi1_unk|FALSE|overlapping (ssRNA)
# RNA: GGGAGUUCUACAGUCCGACGAUCUGAAGACCAAAUACUGGUUUGGAGACAACUUCCAUGUCUUGCUCUUCUACCUCCCUAGUUAGUGGAAAUUUGGAUAAGGGAACUGUAGGGCCCAGAUUCUGGAGGUUUUAUGUCAUUGGCCAACAGAGGAUUGAGCAUCA
# B9: chr2:112646914:112647020:+|CDS|ENSG00000144136|unk|FALSE|unique (ssRNA)
# RNA: GGGAGUUCUACAGUCCGACGAUCGCUCAUCCUGGGCUUCAUUAUUGCAUUUGUCUUGGCAUUCUCCGUGGGAGCCAAUGAUGUAGCAAAUUCUUUUGGUACAGCUGUGGGCUCAGGUGUAGUGACCCUGAAGCAAGCCUGCAUCAACAGAGGAUUGAGCAUCA
# B10: chr11:92354873:92354974:+|CDS|ENSG00000165323|unk|FALSE|bound_elsewhere (ssRNA)
# RNA: GGGAGUUCUACAGUCCGACGAUCGUCACUCUUAAAGUUUUUUUAGAUGAUGUCAAUGACUGCUCCCCAGCUUUCAUUCCCAGUAGCUAUAGUGUGAAGGUUCUUGAAGAUCUCCCUGUUGGCACUGUCAUUGCUUGGCUUGAGCAACAGAGGAUUGAGCAUCA
# B11: chr3:15255350:15255451:-|3pUTR|ENSG00000131370|msi1|total|mutant (ssRNA)
# RNA: GGGAGUUCUACAGUCCGACGAUCUGGGGUGGGAAAGGUGAAUGCCAGUGGGGAUGCGGGGGGAUGAGGGCCGGAGGGACUUACCGAAGGGGAUUUGUGGCUGUGGGGGAGAAGGUUCUACAGCAUAAGCCUUAUCCUGCCAGCCAACAGAGGAUUGAGCAUCA
# B12: ENSG00000198589:be:win_4401|CDS|ENSG00000198589|bound_else_gene|NA|bound_elsewhere_windowed (ssRNA)
# RNA: GGGAGUUCUACAGUCCGACGAUCGGGAGAUAAAGCCUUGAAACCAAUGCAUAGCCUUAUUCCUUUAGGGAAAUCUGCAGCGAAGAGCCCAGUGGACAUUGUGACUGGCGGUAUAUCUCCAGUAAGAGAUCUUGACAGGCUUCUCAACAGAGGAUUGAGCAUCA
# B13: ENSG00000136451:be:win_4301|3pUTR|ENSG00000136451|bound_else_gene|NA|bound_elsewhere_windowed (ssRNA)
# RNA: GGGAGUUCUACAGUCCGACGAUCCUCUAGGGCUCGCUGCUUGGCCUGCGUUUGCUUUUUAUUGUGUAUCCGUUCCCCUCCUACGGUGUGCUCCUGAAUGAAGGUUUCUAUGUAAGCAGAUGAUGAUUUUACCUGUCAAUACCACAACAGAGGAUUGAGCAUCA
# B14: chr22:36488912:36489013:-|3pUTR|ENSG00000100350|msi1|FALSE|unique (ssRNA)
# RNA: GGGAGUUCUACAGUCCGACGAUCCUAGUCUCUUCUUCAUUGCCCUUCCUCACCAGCAAUCUGCACUUUCCCAUCAGGCGUCUUAGUCUCAUUUGUAAGUGCAUAAGAUAAUCACAGUGAUUUUUCAAAGCCCAGGAUCAUAAGCAACAGAGGAUUGAGCAUCA
# B15: chr22:20586770:20586871:+|3pUTR|ENSG00000099917|unk|FALSE|unique (ssRNA)
# RNA: GGGAGUUCUACAGUCCGACGAUCACACGCCUCCUGUCAGACACUUCUAGGUGUUGGCUUCCUUAGAGAGCCUGGGGUUAGGUUAGCUUUCCUGCUUUUAUCUUCUGCCUUGGGGACCUGCCAAACGAAAUCCCACACCUGUACCAACAGAGGAUUGAGCAUCA
# B16: chr1:36180537:36180567:+|3pUTR|ENSG00000116871|msi1_unk|total|mutant (ssRNA)
# RNA: GGGAGUUCUACAGUCCGACGAUCCAUACACACAUAUACACUCACAGCCUCUCUGGCCUCUUCCCUUGGGGAGGGGCCACCUGCCGUAUUUGCCUUGAUUUGGUGGGGUACAGUGGAUGUGAAUACUGUAAACCGCUUGUGCUCCAACAGAGGAUUGAGCAUCA
# B17: chr13:46334680:46343497:-|three_prime_utr|ENSG00000102445|control|control|control (ssRNA)
# RNA: GGGAGUUCUACAGUCCGACGAUCGACUGUUCAACAUGCCUUAUGAUAACACCGAUUUGUGUCUAUUAUUGGUGACAUUGUUUUAGAUAUUGGGUAUUGUAUAUUAAGGAAAAAGAUGGUCUAUAUUCUCUUUAUUGCAUAUACCAACAGAGGAUUGAGCAUCA
# B18: chr1:55154109:55154210:-|CDS|ENSG00000162402|msi1|total|mutant (ssRNA)
# RNA: GGGAGUUCUACAGUCCGACGAUCCCUCCGUGAUGCAUAUGCAGUGAAAGAAGCAAUCAAGAGGAGCUACAUCAUCAAGUGCACCGAAGAUAUUAAGAGGGUUGGUUUCAGCUUUUAUCUGAUUUUGUUGUCCGAGCAACAGUACAACAGAGGAUUGAGCAUCA
# B19: chrX:120627021:120627135:-|CDS|ENSG00000171155|unk|total|mutant (ssRNA)
# RNA: GGGAGUUCUACAGUCCGACGAUCUUGAAGGGUGUGAUGCUUGGAAGCAUUUUCUGUGCUUUGAUCACUAUGCCCGGACACAUCCGGAUUGGUCAUGGAAACCGAAUGCACCACCAUGAGCAUCAUCACCUACAAGCUCCUAACCAACAGAGGAUUGAGCAUCA
# B20: chr14:100884374:100884478:-|CDS|ENSG00000254656|unk|FALSE|unique (ssRNA)
# RNA: GGGAGUUCUACAGUCCGACGAUCGAGGAGUCAUGCAACGGUUCACACCAGGCAAGGGGGGAUCCACUCAGUGGAGCAUCUGAUAGGAUGAAAGAAGCAUCAGUCAACCCAUCGGGAGCCCGAGAAGAACAAGAGGCUCACACUCAACAGAGGAUUGAGCAUCA
# B21: chr18:9257137:9257239:+|CDS|ENSG00000101745|unk|total|mutant (ssRNA)
# RNA: GGGAGUUCUACAGUCCGACGAUCUCUCCGGUCAUCUUCUGCCGAAGAUGUUAAACUAAUUAUAAGCGAGGGGAGACCUACCACCGAAGUUCGAAGAUGCCGCAUGCCUUCUGUCAUUUGUGAACAUACCAAACAAUUCCAAACCAACAGAGGAUUGAGCAUCA
# B22: chr16:67175568:67175669:+|3pUTR|ENSG00000140939|msi1|FALSE|unique (ssRNA)
# RNA: GGGAGUUCUACAGUCCGACGAUCUUAGAGCUCACAGCCUUGGGAAGUGAGACUAGAAGAGGGGAGCAGAAAGGGACCUUGAGUAGACAAAGGCCACACACAUCAUUGUCAUUACUGUUUUAAUUGUCUGGCUUCUCUCUGGACCAACAGAGGAUUGAGCAUCA
# Target: T1, UNK ZnF1-6 (called full-length)
# Assay: nsRBNS (natural sequence RNA bind-n-seq); RBNS binding buffer (assumed for nsRBNS): 25 mM Tris pH 7.5, 150 mM KCl, 3 mM MgCl2, 0.01% Triton X-100, 500 ug/ml BSA, 20 U/ml SUPERase-In, 4 C; UNK is unkempt and MSI1 is Musashi-1; names of the RNAs are library labels; protein concentration not given here; high values mean tight binding
row,Binder,binding signal [enrichment R]
1,B1,0.561
2,B2,1.1
3,B3,0.553
4,B4,0.654
5,B5,0.599
6,B6,1.01
7,B7,1.03
8,B8,1.1
9,B9,0.776
10,B10,0.639
11,B11,1.36
12,B12,0.697
13,B13,0.492
14,B14,0.433
15,B15,1.41
16,B16,0.493
17,B17,0.812
18,B18,0.508
19,B19,0.322
20,B20,1.13
21,B21,0.458
22,B22,0.956
